# The list shows a part of the results. These are further read-outs of the screen, such as a control signal, another cell line or another target. No call is given for them. Compounds called inactive in the main read-out are mostly missing here.
# System: mevalonate kinase [Streptococcus pneumoniae D39]
# Test: pneumococcal mevalonate kinase activity blockers – biochemical, PK/LDH-coupled NADH absorbance, primary screen (AID 555)
# Conditions: purified MK, PK/LDH-coupled NADH absorbance 340 nm; measured here: pilot screen replicates; at 10 µM; stronger effect = higher value
row,SMILES,inhibition [%]
1,CCOc1ccc2c(c1)c1nnc(SCC(=O)N3CCC(C)CC3)nc1n2C,0
2,O=S(=O)(c1ccc(F)cc1)N1CCC(N2CCCC2)CC1,2.5
3,CCOC(=O)N1CCN(C(=O)CN(Cc2ccccc2)S(=O)(=O)c2ccc(OC)c(C)c2)CC1,10.5
4,CCOc1cccc(OCCOCCN2CCCC2)c1,0
5,COc1cccc(N2CCN(Cc3cccnc3)CC2)c1,1.5
6,C=CCn1cnc2c(NCc3ccccc3)ncnc21,12
7,Cn1cccc1Cc1nnc(SCC(=O)NCc2ccc(F)cc2)n1-c1ccc(F)cc1,45.5
8,CCOC(=O)C1CCN(Cc2ccc(OC)c(C)c2OC)CC1,3
9,COc1c(Br)cc2c(C)c(C(=O)O)oc2c1Br,0
10,CCN(CC)C(=O)C1CCCN(Cc2ccc(N(C)C)cc2)C1 (stereo not given),3.5
11,CCC(=O)Nc1ccc(NC(=O)c2ccccn2)cn1,15.5
12,O=C(C(c1ccccc1)c1ccccc1)N1CCN(Cc2ccccn2)CC1,1
13,COc1cc(NC(=O)c2cc(CC(C)C)on2)c(OC)cc1Cl,9
14,Clc1ccc(SCCn2ccnc2)cc1,0
15,CN(C)c1ccc(CNCCC2(O)CCOC(C)(C)C2)cc1 (stereo not given),3
16,CCOc1cc(CN2CCN(C(=O)c3ccco3)CC2)ccc1OC,0.5
17,COc1cccc(CN2CCN(C(=O)CC(C)C)CC2)c1,0.5
18,CCOC(=O)C1CCN(Cc2ccc(C(=O)OC)cc2)CC1,0

row,SMILES,inhibition [%]
1,Cc1ccc(CNC(=O)C2CCN(S(=O)(=O)c3c(C)noc3C)CC2)cc1,10.5
2,COc1cc(C2c3c(n[nH]c3C)C(=O)N2c2ccc(C)cc2)ccc1O (stereo not given),88
3,FC(F)(F)c1cccc(N2CCN(Cc3cccnc3)CC2)c1,3.5
4,CCc1ccc(CN(C)CCc2ccccn2)cc1,0
5,CCOC(=O)C1CCN(Cc2ccc(F)c(Br)c2)CC1,0
6,CCOc1ccccc1OCCCCN1CCCC1,3
7,CN1CCN(c2nc3c(c(=O)n(C)c(=O)n3C)n2Cc2cccc3ccccc23)CC1,16
8,CC1=NN(c2ccccc2)C(=O)C1,0
9,COc1ccccc1C(=O)NCCc1nc2ccccc2n1C,46
10,CCc1ccccc1OCCCCN1CCCC1,0
11,Cc1cccc(NC(=O)c2cnc3sccn3c2=O)n1,14.5
12,Oc1ccc(-c2n[nH]c(=S)n2Cc2ccccc2)cc1,12.5
13,COc1ccc(C)cc1NCc1cccc(OC)c1OC,1
14,COc1ccc(-c2nc(C#N)c(N3CCOCC3)o2)cc1OC,23.5
15,COc1ccc(CN2C(=O)c3cccnc3C2Nc2cc(Cl)ccc2OC)cc1 (stereo not given),44.5
16,C=CCc1ccccc1OCCCCN1CCCC1,0
17,Cc1nn(-c2ccccc2)c2c1C(O)n1c(nc3ccccc31)S2 (stereo not given),20.5

# Reference: PubChem BioAssay AID555 (SRMLSC, 2006)
